# In PubChem BioAssay (EPA / NIEHS):
# For part of these data: Shown are results outside the selection of hits, which stands elsewhere. Records with an inconclusive call do not appear. A structure can be active in one record and inactive in another. The entries are a selection whose mix differs from that of the whole data set. The source made the active and inactive calls. The calls were made as follows, unless noted: active = hit-call score of the fitted dose curve at least 0.9, where 1 is the maximum; inconclusive = response in the unintended direction; inactive = score below 0.9.
# What was measured:
# [1] = target: human Retinoic Acid Receptor gamma (RARg), RARG (gene 5916) (UniProt P13631); test: ATG_RARg_TRANS: Attagene TRANS-FACTORIAL HepG2 Assay for human Retinoic Acid Receptor gamma (RARg) (AID 2283009)
# How it was run: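 TRANS format measured activity of exogenous NR-GAL4 fusion (RARg) in transfected HepG2 liver cells after 24 h dosing. Induced reporter RNA was detected by RT-PCR/capillary electrophoresis fluorescence, analysed in the positive direction against DMSO.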
# [2] = BSK_CASM3C_Proliferation: Cell Proliferation Assessment in the BioMAP Diversity Plus: CASM3C Assay (AID 2283047; active = hit-call score of the fitted dose curve at least 0.9, where 1 is the maximum; inactive = score below 0.9;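 also: sulforhodamine B total protein stain as relative cell number at 560 nm; sub-confluent cells exposed 48 h before staining; fitted both ways against DMSO so gain or loss of cell number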); conditions: primary human coronary artery smooth muscle cells
# [3] = target: Estrogen receptor beta (Homo sapiens) (UniProt Q92731); test: OT_ER_ERbERb_0480: Odyssey Thera (OT) 8-hour HEK293T Protein-Complementation Assay for Estrogen Receptor-beta/-beta Homodimer (AID 2283357);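 also: active means signal gain over DMSO baseline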
# How it was run: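 ER-beta LBD homodimer PCA stably expressed in HEK293T; 8 h compound exposure, then formaldehyde fixation and Draq5 staining. Gain in nuclear/cytoplasmic fluorescence intensity versus DMSO vehicle, read on laser scanning cytometer.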
# [4] = read-out: catalase (CAT), CAT (gene 847); test: LTEA_HepaRG_CAT: Life Technologies and Expression Analysis (LTEA) Assay for catalase (CAT) using HepaRG (AID 2283452; active = hit-call score of the fitted dose curve at least 0.9, where 1 is the maximum; inactive = score below 0.9); conditions: actives raise or lower the signal; mRNA level, 48 h
# How it was run: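 Expression of CAT was quantified by TaqMan qRT-PCR with ACTB/GAPDH/POLR2A normalization after 48 h chemical exposure of HepaRG. Eight-point half-log series, top 100 uM, in 0.5% DMSO; gain or loss fitted against vehicle.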
# [5] = system: chicken Androgen Receptor (AR), gene 422165; test: ATG_chAR_XSP2: Attagene TRANS-FACTORIAL Multi-Species (XSP2) HepG2 Assay for chicken Androgen Receptor (AR) (AID 2283819);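 also: hits raise reporter mRNA above DMSO so potency is for activation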
# How it was run: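 Readout is reporter mRNA induction via RT-PCR/capillary electrophoresis after 24 h chemical exposure, positive direction relative to DMSO. Transiently transfected HepG2 express chimeric chicken AR–GAL4; AR stimulated by 3 nM 6-alpha-fluorotestosterone and 1.5 nM norgestrel.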
# [6] = system: frog Estrogen Receptor (ER), gene 398734; test: ATG_frER1_XSP2: Attagene TRANS-FACTORIAL Multi-Species (XSP2) HepG2 Assay for frog Estrogen Receptor (ER) (AID 2283821);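 also: hits raise reporter mRNA above DMSO baseline so potency means agonist or activator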
# How it was run: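 HepG2 cells transiently transfected with multiplexed GAL4-UAS reporter units expressing chimeric NR-Gal4 proteins (TRANS format) were dosed for 24 h. Reporter mRNA was quantified by RT-PCR, FAM primer extension, HpaI digestion and capillary electrophoresis; gain of signal relative to DMSO.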
# [7] = target: Retinoic acid receptor RXR-alpha (Homo sapiens) (UniProt P19793); test: ATG_RXRa_TRANS: Attagene TRANS-FACTORIAL HepG2 Assay for human Retinoid X Receptor alpha (RXRa) (AID 2283012)
# How it was run: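 Measures exogenous chimeric NR-GAL4 activity in transfected HepG2 liver cells after 24 h of dosing. Induced reporter mRNA was detected by RT-PCR with capillary electrophoresis, and gain of signal was analysed against DMSO.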
# [8] = read-out: Urokinase-type plasminogen activator receptor (uPAR), PLAUR (gene 5329); test: BSK_4H_uPAR: BioMAP Diversity Plus: 4H Assay for Urokinase-type plasminogen activator receptor (uPAR) Biomarker Activity (AID 2283030; active = hit-call score of the fitted dose curve at least 0.9, where 1 is the maximum; inactive = score below 0.9); conditions: actives raise or lower the signal; primary human endothelial cells (HUVEC)
# How it was run: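 Human umbilical vein endothelial cells in the 4H system, 24 h after chemical dosing. Cell-surface uPAR measured by ELISA, fitted in both directions versus DMSO; cytotoxicity checked by SRB total protein in parallel cultures.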
# [9] = target: rat CYP2C13, Cyp2c13 (gene 171521) (UniProt P20814); test: NVS_ADME_rCYP2C13: NovaScreen (NVS) CYP450-related Enzyme Activity (ADME) Assay for rat CYP2C13 (AID 2283121)
# Description: NVS_ADME_rCYP2C13 is a biochemical, single-readout assay that uses extracted gene-proteins in a cell-free assay. Measurements were taken 0.75 hour after chemical dosing in a 96-well plate.NVS_ADME_rCYP2C13 is one of one assay component(s) measured or calculated from the NVS_ADME_rCYP2C13 assay. It is designed to make measurements of enzyme activity, a form of enzyme reporter, as detected with fluorescence intensity signals by Fluorescence technology.Data from the assay component NVS_ADME_rCYP2C13 was analyzed into 1 assay endpoint. This assay endpoint, NVS_ADME_rCYP2C13, was analyzed in the positive analysis fitting direction relative to Acetonitrile as the negative control and baseline of activity. Using a type of enzyme reporter, loss-of-signal activity can be used to understand changes in the enzymatic activity as they relate to the gene Cyp2c13. Furthermore, this assay endpoint can be referred to as a primary readout, because this assay has produced multiple assay endpoints where this one serves a enzymatic activity function. To generalize the intended target to other relatable targets, this assay endpoint is annotated to the cyp intended target family, where the subfamily is xenobiotic metabolism. […]
# [10] = target: human Phosphodiesterase 5 (PDE5), PDE5A (gene 8654) (UniProt O76074); test: NVS_ENZ_hPDE5: NovaScreen (NVS) Enzymatic Assay for human Phosphodiesterase 5 (PDE5) (AID 2283194)
# [11] = target: PGR (gene 5241) (UniProt P06401); test: NVS_NR_hPR: NovaScreen (NVS) Nuclear Receptor Binding Assay for human Progestron Receptor (PR) (AID 2283360);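 also: active means loss of bound radioligand signal versus DMSO baseline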
# How it was run: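 Cell-free radioligand binding using receptor protein extracted from T47D cells, read by scintillation counting 18 hours after dosing. Loss of signal relative to DMSO baseline indicates displacement; primary screen single concentration 25 uM in duplicate, actives followed in concentration series.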
# [12] = read-out: ABC Transporter (ABCB11), ABCB11 (gene 8647); test: LTEA_HepaRG_ABCB11: Life Technologies and Expression Analysis (LTEA) Assay for ABC Transporter (ABCB11) using HepaRG (AID 2283463; active = hit-call score of the fitted dose curve at least 0.9, where 1 is the maximum; inactive = score below 0.9); conditions: actives raise or lower the signal; mRNA level, 48 h
# How it was run: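 ABCB11 transcript levels quantified by TaqMan qRT-PCR against three housekeeping genes after 48 h chemical exposure of HepaRG cultures. Concentrations up to 100 uM in half-log steps, 0.5% DMSO vehicle; both induction and suppression scored.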
# [13] = read-out: Apolipoprotein A-V (APOA5) gene, APOA5 (gene 116519); test: LTEA_HepaRG_APOA5: Life Technologies and Expression Analysis (LTEA) Assay for Apolipoprotein A-V (APOA5) gene using HepaRG (AID 2283474; active = hit-call score of the fitted dose curve at least 0.9, where 1 is the maximum; inactive = score below 0.9); conditions: actives raise or lower the signal; mRNA level, 48 h
# How it was run: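 Differentiated HepaRG cells in serum-free induction medium, exposed 48 h in duplicate to eight half-log concentrations topping at 100 uM (0.5% DMSO). APOA5 mRNA by Fluidigm TaqMan qRT-PCR, normalized to ACTB, GAPDH and POLR2A; bidirectional fit versus DMSO.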
# [14] = read-out: DNA damage-inducible transcript 3 (DDIT3), DDIT3 (gene 1649); test: LTEA_HepaRG_DDIT3: Life Technologies and Expression Analysis (LTEA) Assay for DNA damage-inducible transcript 3 (DDIT3) using HepaRG (AID 2283488; active = hit-call score of the fitted dose curve at least 0.9, where 1 is the maximum; inactive = score below 0.9); conditions: actives raise or lower the signal; mRNA level, 48 h
# How it was run: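 Cells are human HepaRG liver cells treated for 48 h with eight half-log concentrations up to 100 uM in 0.5% DMSO. Transcript levels come from qRT-PCR normalized to three housekeeping genes, with activity fitted in both directions relative to vehicle.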
# [15] = read-out: Glutathione S-Transferase (GSTA2), GSTA2 (gene 2939); test: LTEA_HepaRG_GSTA2: Life Technologies and Expression Analysis (LTEA) Assay for Glutathione S-Transferase (GSTA2) using HepaRG (AID 2283497; active = hit-call score of the fitted dose curve at least 0.9, where 1 is the maximum; inactive = score below 0.9); conditions: actives raise or lower the signal; mRNA level, 48 h
# How it was run: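 GSTA2 transcript levels came from Fluidigm TaqMan qRT-PCR normalized to three housekeeping genes, fitted in both directions against DMSO. HepaRG cultures received chemicals for 48 h in serum-free induction medium (0.5% DMSO), 8 half-log concentrations up to 100 uM, duplicate.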
# [16] = LTEA_HepaRG_LDH_cytotoxicity: Cytotoxicity Assessment in the Life Technologies and Expression Analysis (LTEA) Assay (AID 2283563);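 also: LDH activity released into spent culture medium as a marker of cell death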
# How it was run: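 Differentiated HepaRG cells in serum-free induction medium, exposed 48 h in duplicate to 8 half-log concentrations up to 100 uM in 0.5% DMSO. Cytotoxicity from LDH measured in spent medium, fit relative to DMSO.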
# [17] = read-out: sulfotransferase (SULT2A), SULT2A1 (gene 6822); test: CLD_SULT2A_24hr: CellzDirect (CLD) Gene Expression Assay for sulfotransferase (SULT2A) at 24 hours (AID 2283694)
# How it was run: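 mRNA is measured by qNPA: probe hybridisation, S1 nuclease digestion, chemiluminescence, in lysates from human primary hepatocytes harvested 24 h after daily dosing. Vehicle was 0.2% DMSO. Phase-contrast microscopy flagged cytotoxicity (yes/no).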
# [18] = target: zebrafish Thyroid Hormone Receptor alpha (TRa), thraa (gene 30670) (UniProt Q98867); test: ATG_zfTRa_XSP2: Attagene TRANS-FACTORIAL Multi-Species (XSP1) HepG2 Assay for zebrafish Thyroid Hormone Receptor alpha (TRa) (AID 2283832);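 also: actives raise zebrafish TRa-Gal4 reporter transcript above DMSO baseline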
# How it was run: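 HepG2, transient MRTU transfection, exogenous NR-Gal4 chimeras; 24 h dosing; mRNA readout via RT-PCR/CE fluorescence; positive direction vs DMSO.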
# Sequence of UniProt Q92731 (Q92731 whole entry, looked up, the tested form may be a part): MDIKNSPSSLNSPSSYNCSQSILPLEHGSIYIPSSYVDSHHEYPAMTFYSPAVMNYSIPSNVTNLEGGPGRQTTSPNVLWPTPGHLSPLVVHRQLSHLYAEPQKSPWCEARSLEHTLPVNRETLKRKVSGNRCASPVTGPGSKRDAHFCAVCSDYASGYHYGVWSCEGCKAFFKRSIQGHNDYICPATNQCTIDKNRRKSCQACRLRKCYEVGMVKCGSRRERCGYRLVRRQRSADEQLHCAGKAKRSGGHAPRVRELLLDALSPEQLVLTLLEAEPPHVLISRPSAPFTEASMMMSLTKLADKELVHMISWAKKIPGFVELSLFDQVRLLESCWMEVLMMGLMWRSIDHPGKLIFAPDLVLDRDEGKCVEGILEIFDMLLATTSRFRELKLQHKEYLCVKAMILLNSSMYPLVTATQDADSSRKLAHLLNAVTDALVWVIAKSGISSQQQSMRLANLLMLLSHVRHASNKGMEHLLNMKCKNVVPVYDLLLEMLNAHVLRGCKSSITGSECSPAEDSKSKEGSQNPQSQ
# Sequence of UniProt P19793 (P19793 whole entry, looked up, the tested form may be a part): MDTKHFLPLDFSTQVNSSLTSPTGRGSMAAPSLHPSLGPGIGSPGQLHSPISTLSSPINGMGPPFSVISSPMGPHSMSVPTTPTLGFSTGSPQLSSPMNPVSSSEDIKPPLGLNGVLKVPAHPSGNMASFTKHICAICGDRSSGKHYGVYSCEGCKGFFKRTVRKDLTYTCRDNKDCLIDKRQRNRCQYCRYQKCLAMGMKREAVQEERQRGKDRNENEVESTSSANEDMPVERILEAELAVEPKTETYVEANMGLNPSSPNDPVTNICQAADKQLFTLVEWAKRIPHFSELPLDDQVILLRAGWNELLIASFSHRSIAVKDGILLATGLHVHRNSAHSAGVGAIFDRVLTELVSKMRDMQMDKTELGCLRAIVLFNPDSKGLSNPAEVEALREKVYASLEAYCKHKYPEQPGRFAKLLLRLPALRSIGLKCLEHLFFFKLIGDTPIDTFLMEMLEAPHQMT
# Sequence of human Retinoic Acid Receptor gamma (RARg), RARG (gene 5916) (P13631 whole entry, looked up, the tested form may be a part): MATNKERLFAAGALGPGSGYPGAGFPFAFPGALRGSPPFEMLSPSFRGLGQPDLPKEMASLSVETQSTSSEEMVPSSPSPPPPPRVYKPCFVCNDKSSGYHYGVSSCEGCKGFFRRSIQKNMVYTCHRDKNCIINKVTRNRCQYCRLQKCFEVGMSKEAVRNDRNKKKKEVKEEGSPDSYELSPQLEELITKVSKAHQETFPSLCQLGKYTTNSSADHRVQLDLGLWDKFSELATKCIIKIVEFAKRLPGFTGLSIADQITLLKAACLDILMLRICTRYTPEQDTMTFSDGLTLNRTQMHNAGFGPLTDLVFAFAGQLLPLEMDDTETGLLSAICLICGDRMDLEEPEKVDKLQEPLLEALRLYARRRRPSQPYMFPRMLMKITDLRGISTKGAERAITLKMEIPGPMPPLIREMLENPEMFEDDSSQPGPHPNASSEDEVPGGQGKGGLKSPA
# Sequence of UniProt Q98867 (Q98867 whole entry, looked up, the tested form may be a part): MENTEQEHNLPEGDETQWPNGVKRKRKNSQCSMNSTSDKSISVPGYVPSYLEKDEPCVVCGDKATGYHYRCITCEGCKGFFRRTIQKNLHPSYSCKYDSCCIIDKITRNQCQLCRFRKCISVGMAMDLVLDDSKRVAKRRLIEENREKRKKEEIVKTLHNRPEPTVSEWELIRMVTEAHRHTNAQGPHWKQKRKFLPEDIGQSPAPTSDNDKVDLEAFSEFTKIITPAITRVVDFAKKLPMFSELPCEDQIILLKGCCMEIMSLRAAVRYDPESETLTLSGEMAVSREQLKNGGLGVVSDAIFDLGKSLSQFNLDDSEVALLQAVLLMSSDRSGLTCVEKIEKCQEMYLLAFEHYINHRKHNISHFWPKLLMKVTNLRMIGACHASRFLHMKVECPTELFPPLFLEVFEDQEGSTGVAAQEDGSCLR
# Sequence of UniProt P20814 (P20814 whole entry, looked up): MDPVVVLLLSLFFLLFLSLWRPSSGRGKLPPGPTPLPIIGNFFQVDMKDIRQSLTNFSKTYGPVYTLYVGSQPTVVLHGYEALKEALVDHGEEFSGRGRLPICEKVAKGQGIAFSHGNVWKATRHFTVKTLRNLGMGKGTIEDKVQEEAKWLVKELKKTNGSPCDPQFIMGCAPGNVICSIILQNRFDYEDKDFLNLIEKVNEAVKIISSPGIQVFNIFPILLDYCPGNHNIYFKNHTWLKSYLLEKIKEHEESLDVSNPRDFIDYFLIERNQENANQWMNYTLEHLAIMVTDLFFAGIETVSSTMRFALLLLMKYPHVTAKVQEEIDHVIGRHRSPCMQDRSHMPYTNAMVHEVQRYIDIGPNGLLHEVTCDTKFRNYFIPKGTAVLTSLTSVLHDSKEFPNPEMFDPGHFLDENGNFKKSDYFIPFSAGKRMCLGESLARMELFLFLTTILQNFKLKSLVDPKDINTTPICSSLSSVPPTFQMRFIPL
# Sequence of UniProt P06401 (P06401 whole entry, looked up): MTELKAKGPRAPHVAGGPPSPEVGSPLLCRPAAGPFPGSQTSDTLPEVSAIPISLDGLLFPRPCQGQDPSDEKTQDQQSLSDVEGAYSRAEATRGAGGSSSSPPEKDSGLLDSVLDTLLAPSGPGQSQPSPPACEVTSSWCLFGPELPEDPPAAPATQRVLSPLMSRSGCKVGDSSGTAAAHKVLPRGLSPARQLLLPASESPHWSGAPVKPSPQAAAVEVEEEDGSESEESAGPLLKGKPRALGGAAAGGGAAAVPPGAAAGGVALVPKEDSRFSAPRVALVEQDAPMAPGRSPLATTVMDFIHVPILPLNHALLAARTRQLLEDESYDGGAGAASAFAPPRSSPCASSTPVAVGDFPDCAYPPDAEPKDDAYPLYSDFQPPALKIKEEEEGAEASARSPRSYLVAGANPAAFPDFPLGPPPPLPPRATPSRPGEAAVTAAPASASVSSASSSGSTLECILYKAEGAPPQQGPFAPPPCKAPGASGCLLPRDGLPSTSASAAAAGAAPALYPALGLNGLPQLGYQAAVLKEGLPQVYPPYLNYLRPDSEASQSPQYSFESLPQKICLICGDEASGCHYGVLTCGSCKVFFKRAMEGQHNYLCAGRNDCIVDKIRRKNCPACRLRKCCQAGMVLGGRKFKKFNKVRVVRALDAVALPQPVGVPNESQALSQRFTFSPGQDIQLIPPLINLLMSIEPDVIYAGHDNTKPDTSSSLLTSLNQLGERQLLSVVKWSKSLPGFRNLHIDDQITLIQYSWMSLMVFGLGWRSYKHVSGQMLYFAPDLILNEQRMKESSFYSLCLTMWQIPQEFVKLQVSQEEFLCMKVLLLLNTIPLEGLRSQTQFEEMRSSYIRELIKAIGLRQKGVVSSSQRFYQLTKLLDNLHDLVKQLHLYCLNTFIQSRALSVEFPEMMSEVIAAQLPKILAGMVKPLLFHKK
Compound,outcome [1],AC50 [2],outcome [3],outcome [4],AC50 [5],AC50 [6],outcome [7],outcome [8],AC50 [9],AC50 [10],AC50 [11],AC50 [12],AC50 [13],AC50 [14],AC50 [15],AC50 [16],outcome [17],outcome [18]
C#C[C@]1(O)CC[C@H]2[C@@H]3CCC4=CC(=O)CC[C@@H]4[C@H]3CC[C@@]21C,inactive,active: 14.5 µM,inactive,inactive,active: 23.8 µM,active: 0.121 µM,–,–,–,–,–,–,–,–,–,–,–,–
C=CCOC(Cn1ccnc1)c1ccc(Cl)cc1Cl (stereo not drawn),–,–,–,–,–,–,inactive,inactive,active: 0.3 µM,active: 16.8 µM,active: 25 µM,active: 28.7 µM,active: 32.7 µM,active: 17.8 µM,active: 34.6 µM,active: 61.6 µM,inactive,inactive
